Target: T1, biotinylated truncated STAT6 (123-632)-avi (Homo sapiens, UniProt P42226)
T1 sequence (P42226 123-632 limits assumed): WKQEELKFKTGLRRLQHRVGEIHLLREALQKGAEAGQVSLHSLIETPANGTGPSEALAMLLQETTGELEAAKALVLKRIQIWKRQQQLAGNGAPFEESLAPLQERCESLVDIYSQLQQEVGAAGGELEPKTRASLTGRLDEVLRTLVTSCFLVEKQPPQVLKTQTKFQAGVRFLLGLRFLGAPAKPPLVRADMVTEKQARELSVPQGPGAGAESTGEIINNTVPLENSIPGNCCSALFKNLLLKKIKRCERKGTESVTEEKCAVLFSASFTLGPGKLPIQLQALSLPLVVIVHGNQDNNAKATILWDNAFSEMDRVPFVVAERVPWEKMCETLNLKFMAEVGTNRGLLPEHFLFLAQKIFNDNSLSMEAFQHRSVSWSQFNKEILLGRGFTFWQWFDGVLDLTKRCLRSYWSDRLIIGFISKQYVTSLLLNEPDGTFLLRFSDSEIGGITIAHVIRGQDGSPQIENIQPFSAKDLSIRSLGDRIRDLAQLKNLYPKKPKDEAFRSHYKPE
Experiment: Homogenous Time-Resolved Fluorescence (HTRF) binding assay
Conditions: 0.15 nM biotinylated truncated STAT6 (123-632)-avi, 20 nM fluorescein-labeled probe

Compound | IC50 (30 minutes room temperature) [nM] | IC50 (30 minutes at room temperature) [nM]
COc1ccccc1-c1cc(C2=CCCN(C(=O)CCn3ccnn3)C2)c(F)c2cc(C#N)oc12 [Example I-1526] | 1000 to 10000 | 
COc1ccccc1-c1cc(C2=CCCN(C(=O)CCn3ccnn3)C2)c(F)c2[nH]c(C(=O)N3CCN(c4ccc5nn(C)cc5c4C)CC3)cc12 [Example I-945] |  | 100 to 1000
COc1ccccc1-c1cc(C2=CCCN(C(=O)CCn3ccnn3)C2)c(F)c2cc(C(F)(F)F)oc12 [Example I-1264] | 10000 to 100000 | 
CCc1nc(C)ccc1-c1cc(-n2c(C)nn(C)c2=O)cc2sc(C3=CCCN(C(=O)CCn4ccnn4)C3)cc12 [Example I-1330] | < 100 | 
CN(C)C(=O)c1cc2cc(C3=CCCN(C(=O)CCn4ccnn4)C3)cc(-c3ccc(-n4ccnn4)cc3)c2o1 [Example I-1607] | < 100 | 
COc1ccccc1-c1cc(C2=CCCN(C(=O)CCn3ccnn3)C2)c(F)c2[nH]c(C(=O)N3CCN(c4cc(OC)c5sccc5n4)CC3)cc12 [Example I-1447] | < 100 | 
COc1ccccc1-c1cc(C2=CCCN(C(=O)CCn3ccnn3)C2)c(F)c2[nH]c(C(=O)N3CCc4[nH]c5ccccc5c4C3)cc12 [Example I-1421] | < 100 | 
CCc1cnccc1-c1cc(C2=CCCN(C(=O)CCn3ccnn3)C2)c(F)c2[nH]c(C(=O)N3CCN(c4ncc(F)cc4OC)CC3)cc12 [Example I-689] |  | < 100
CCc1nc(C)ccc1-c1cc(C(=O)N2CCN(c3ncc(F)cc3OC)CC2)cc2cc(C3=CCCN(C(=O)C(C)C(=O)O)C3)n(CC3CC3)c12 (stereo not shown) [Example I-539] |  | < 100
CCOc1ccncc1-c1cc(C2=CCCN(C(=O)CCn3ccnn3)C2)c(F)c2[nH]c(C(=O)N3CCN(c4ccccc4OC)CC3)cc12 [Example I-406] |  | < 100
CCc1ccncc1-c1cc(C2=CCCN(C(=O)CCC(=O)O)C2)c(F)c2[nH]c(C(=O)N3CCN(c4ncc(F)cc4OC)CC3)cc12 [Example I-1170] |  | 100 to 1000
COc1ccccc1-c1cc(C2=CCCN(C(=O)CCn3ccnn3)C2)c(F)c2[nH]c(C(=O)N3CCN(c4ncccc4Oc4ccccc4)CC3)cc12 [Example I-334] |  | < 100
N#Cc1cccc(OCCNC(=O)c2cc3ccc(C4=CCCN(C(=O)CCn5ccnn5)C4)c(F)c3[nH]2)c1 [Example I-1661] | 1000 to 10000 | 
CC(=O)N1CCN(c2cc(C3=CCCN(C(=O)CCn4ccnn4)C3)cc3cc(C(=O)N(C)C)oc23)CC1 [Example I-1186] |  | < 100
COc1ccncc1-c1cc(C2=CCCN(C(=O)CCn3ccnn3)C2)c(F)c2[nH]c(C(=O)N3CCN(c4ncccc4OC)CC3)cc12 [Example I-368] |  | < 100
CCc1ccncc1-c1cc(C2=CCC[C@@H](C(=O)O)C2)c(F)c2[nH]c(C(=O)N3CCN(c4ncc(F)cc4OC)CC3)cc12 (single isomer, unassigned) [Example I-810] |  | > 100000
COc1cc(F)cnc1N1CCN(C(=O)c2cc3c(-c4cnc5ccccc5c4OC)cc(C4=CCCN(C(=O)CCn5ccnn5)C4)c(F)c3[nH]2)CC1 [Example I-468] |  | < 100
COc1ccccc1-c1cc(C2=CCCN(C(=O)CCn3ccnn3)C2)c(F)c2[nH]c(C(=O)N3CCC(Sc4ccc(F)cc4)C3)cc12 (stereo not shown) [Example I-1364] | 100 to 1000 | 
CCc1ccc(-c2cc(C3=CCCN(C(=O)CCn4ccnn4)C3)c(F)c3[nH]c(C(=O)N4Cc5cnn(CC)c5C4)cc23)c(C)n1 [Example I-761] |  | > 100000
CN(C)C(=O)c1cc2cc(C3=CCCN(C(=O)CCn4ccnn4)C3)cc(N3CCNCC3)c2o1 [Example I-191] |  | 10000 to 100000
COc1ccccc1-c1cc(C2=CCCN(C(=O)CCn3ccnn3)C2)c(F)c2[nH]c(C(=O)NC(C)c3nc(C)cs3)cc12 (stereo not shown) [Example I-1422] | 1000 to 10000 | 
CC(C(=O)N1CCC=C(c2ccc3cc(C(=O)N(C)C)[nH]c3c2)C1)n1ccccc1=O (stereo not shown) [Example I-53] |  | 100 to 1000
CCOc1cnccc1-c1cc(C2=CCCN(C(=O)CCn3ccnn3)C2)c(F)c2[nH]c(C(=O)N(C)C)cc12 [Example I-1638] | < 100 | 
CCc1nc(C)ccc1-c1cc(C(=O)N2Cc3cnn(CC)c3C2)cc2sc(C3=CCCN(C(=O)CCn4ccnn4)C3)nc12 [Example I-1215] |  | < 100
CN(C)C(=O)c1cc2ccc(C3=CCCN(C(=O)C4(c5ccc(Cl)cc5)CC(O)C4)C3)cc2[nH]1 (stereo not shown) [Example I-78] |  | 10000 to 100000
